Test results as given in PubChem BioAssay AID1159614 (National Center for Advancing Translational Sciences (NCATS), 2016).
About 65 (0.1%) of roughly 45,000 compounds were called active. Calls follow the shape of the dose curve; as a rule, active = well fitted activation curve with a large enough effect; inconclusive = small, poorly fitted or top-dose-only effect; inactive = no such curve, though single readings can be large or run the other way. The list shows a part of the results.

Molecular target: Galactocerebrosidase (Homo sapiens) (UniProt P54803)
Sequence of UniProt P54803 (P54803 whole entry, looked up): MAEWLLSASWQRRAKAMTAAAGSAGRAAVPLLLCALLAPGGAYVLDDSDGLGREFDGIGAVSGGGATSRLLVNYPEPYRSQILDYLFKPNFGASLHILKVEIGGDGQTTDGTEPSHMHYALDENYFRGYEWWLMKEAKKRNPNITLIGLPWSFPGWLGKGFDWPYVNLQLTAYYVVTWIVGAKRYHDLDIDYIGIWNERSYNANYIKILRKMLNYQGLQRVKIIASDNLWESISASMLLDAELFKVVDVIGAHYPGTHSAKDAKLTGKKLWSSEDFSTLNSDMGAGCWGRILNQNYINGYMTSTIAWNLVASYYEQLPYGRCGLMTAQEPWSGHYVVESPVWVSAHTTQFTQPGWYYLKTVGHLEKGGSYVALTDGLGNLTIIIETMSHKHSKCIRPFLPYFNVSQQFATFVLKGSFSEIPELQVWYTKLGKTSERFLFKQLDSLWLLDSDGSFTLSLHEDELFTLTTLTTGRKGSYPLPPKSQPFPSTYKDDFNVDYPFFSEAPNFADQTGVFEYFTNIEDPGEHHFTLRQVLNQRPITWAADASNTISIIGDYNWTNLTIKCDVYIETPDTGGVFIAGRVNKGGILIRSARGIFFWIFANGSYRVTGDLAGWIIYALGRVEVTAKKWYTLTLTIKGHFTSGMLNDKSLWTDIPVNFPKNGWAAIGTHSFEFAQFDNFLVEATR
Assay: A Novel Cell-Based Assay to Identify Small Molecules for B -Galactocerebrosidase; also: 0% is about no effect; nearly all actives have a fitted effect of over 65% in size
Settings: 145M-Twi-hGALC-G270D cells (Twitcher mouse brain line with human GALC G270D), HMU-beta-Gal fluorescence, 48 h; series mostly up to 57.5 µM; activation: at the top concentration
How it was run: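 Brain-derived Twitcher mouse 145M-Twi cells stably expressing human GALC-G270D or wild-type GALC, treated live, then residual GALC activity read by fluorescence of HMU-b-Gal substrate (0.1 mM final) in citrate-phosphate buffer pH 5.2 with sodium taurocholate. Signal increase indicates enhancement.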

activation, inactive:
CCOC(=O)c1c(C)[nH]c(C)c1S(=O)(=O)NCC(=O)Nc1cccc(SC)c1 -20.6%, COc1cccc(NC(=O)CSc2nc(C)c(Cc3ccccc3)c(=O)[nH]2)c1 -8.51%, O=C(NCC(c1cccnc1)N1CCN(c2ccccc2F)CC1)c1ccc(F)cc1 (stereo unspecified) -7.13%, COc1ccc(NC(=O)c2c(NCc3cccc(F)c3)sc3c2CCC3)c(OC)c1 -9.28%, Cc1cccc(NC(=O)c2cnc3sc(N4CCCC4)nn3c2=O)c1C -7.66%, CSCCC(NS(=O)(=O)c1ccc2c(c1)oc(=O)n2C)C(=O)Nc1ccc(F)c(Cl)c1 (stereo unspecified) -17.3%, Cc1nn(C)c(C)c1S(=O)(=O)N(CC(=O)NCCc1ccc(Cl)cc1)c1ccc(C(C)C)cc1 -14.7%, COc1cccc2sc(N(Cc3cccnc3)C(=O)c3ccco3)nc12 -5.82%, COc1ccc(OC)c(CNC(=O)c2c(C)oc3ncn(CC(C)C)c(=O)c23)c1 -14.5%, CCCCOc1ccc(C2=NC(c3cccs3)=Nc3ccc(OC)cc3N2)cc1 -14.4%, Cc1ccccc1C(=O)Nc1ccc(S(=O)(=O)N2CCC(c3nc4ccccc4s3)CC2)cc1 -11%, COc1cc2c(cc1OC)C(=O)CC2 -8.19%, Cc1cc(C)cc(NC(=O)Cc2csc(COc3cccc(C)c3)n2)c1 -0.417%, COc1ccc(C)cc1NC(=O)C(=O)NCCc1sc(-c2cccc(C)c2)nc1C -17.3%, Cc1nn(CCCC(=O)NCc2ccccc2Br)c(=O)c2c1sc1ccccc12 0.836%, CCOc1ccc(S(=O)(=O)N(CC(=O)Nc2ccc(OC)cc2OC)c2ccccc2)cc1 -5.46%, O=C(NCc1ccccc1F)C1CCCN(C(=O)N2CCOc3ccccc32)C1 (stereo unspecified) -18.8%, O=C(CN1C=NS(=O)(=O)c2ccccc21)Nc1ccccc1F -10.5%, CCOC(=O)c1ccc(NC(=O)CCCc2nc(-c3cc(OC)c(OC)c(OC)c3)no2)cc1 -17.7%, CCCNC(=O)C1CCC(Cn2c(=O)c3sccc3n(CC(=O)NCc3ccccc3)c2=O)CC1 (stereo unspecified) -8.93%, COc1ccc(Br)cc1CNC(=O)c1cc(=O)[nH]c2ccc(S(=O)(=O)N3CCCCC3C)cc12 (stereo unspecified) 3.95%, Cc1nn(C(C)C(=O)N2CCN(c3ccc(F)cc3)CC2)c(=O)c2c1sc1ccccc12 (stereo unspecified) 0.178%, CCn1cc(C(=O)NCCc2ccccc2)c(=O)c2cc(S(=O)(=O)N3CCCCCC3)ccc21 -2.16%, COc1ccc(N2C(=O)CS(=O)(=O)C23C(=O)N(Cc2ccccc2F)c2ccccc23)cc1Cl (stereo unspecified) -20.3%, COc1ccc(-c2nc3ccccc3o2)cc1NC(=O)COc1ccc(C)c(C)c1 -2.21%, COc1ccc(OC)c(CNS(=O)(=O)c2ccc3c(c2)oc(=O)n3C)c1 -8.47%
